# About 2,200 (0.71%) of roughly 310,000 compounds showed an effect of 50% or more. Effects have a minus sign here. The list shows a part of the results.
# Molecular target: human ether-à-go-go-related gene (hERG) potassium channel (human, UniProt Q12809)
# Test: primary screen, population patch clamp on CHO cells stably expressing hERG
# human ether-à-go-go-related gene (hERG) potassium channel, sequence (Q12809 whole entry, looked up): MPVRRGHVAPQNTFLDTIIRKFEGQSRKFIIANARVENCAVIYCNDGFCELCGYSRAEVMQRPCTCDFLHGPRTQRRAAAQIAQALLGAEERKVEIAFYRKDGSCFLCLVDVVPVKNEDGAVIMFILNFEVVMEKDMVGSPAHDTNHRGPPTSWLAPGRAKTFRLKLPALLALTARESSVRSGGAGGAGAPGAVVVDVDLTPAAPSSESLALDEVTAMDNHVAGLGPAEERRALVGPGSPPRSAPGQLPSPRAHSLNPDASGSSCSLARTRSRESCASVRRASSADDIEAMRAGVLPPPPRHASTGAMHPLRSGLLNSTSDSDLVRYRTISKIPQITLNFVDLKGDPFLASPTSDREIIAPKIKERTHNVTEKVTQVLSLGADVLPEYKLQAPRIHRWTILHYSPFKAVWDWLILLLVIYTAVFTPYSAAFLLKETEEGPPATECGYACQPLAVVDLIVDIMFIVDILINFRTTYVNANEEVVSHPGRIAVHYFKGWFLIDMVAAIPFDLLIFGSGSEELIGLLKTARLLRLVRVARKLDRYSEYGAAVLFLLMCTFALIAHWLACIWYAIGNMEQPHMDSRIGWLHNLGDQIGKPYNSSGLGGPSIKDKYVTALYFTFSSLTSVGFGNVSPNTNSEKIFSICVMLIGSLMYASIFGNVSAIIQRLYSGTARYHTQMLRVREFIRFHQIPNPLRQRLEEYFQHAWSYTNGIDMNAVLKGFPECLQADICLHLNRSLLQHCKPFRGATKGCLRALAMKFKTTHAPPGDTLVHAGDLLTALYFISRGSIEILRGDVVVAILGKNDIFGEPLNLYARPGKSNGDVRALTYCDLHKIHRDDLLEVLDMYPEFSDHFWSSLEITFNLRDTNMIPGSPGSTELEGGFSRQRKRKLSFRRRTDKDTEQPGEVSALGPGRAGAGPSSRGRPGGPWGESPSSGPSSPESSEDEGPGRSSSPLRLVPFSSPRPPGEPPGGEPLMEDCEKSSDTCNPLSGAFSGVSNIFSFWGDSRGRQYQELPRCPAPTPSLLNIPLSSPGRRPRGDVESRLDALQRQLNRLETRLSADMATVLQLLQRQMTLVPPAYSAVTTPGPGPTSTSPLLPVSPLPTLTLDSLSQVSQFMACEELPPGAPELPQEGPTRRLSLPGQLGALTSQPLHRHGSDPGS
row,SMILES,"hERG current change (%, negative = inhibition) at 1uM"
1,Cc1nc(N2CCOCC2)c2c3c(sc2n1)CCC3,1%
2,O=C1NC2(CCCCCC2)C(=O)N1Cc1ccc(Br)cc1,11.5%
3,COc1cccc(C(=O)NCCNC(=O)c2ccc(C)nc2)c1,11.7%
4,O=S(=O)(c1cccc(-c2n[nH]c(=S)n2C2CCCC2)c1)N1CCOCC1,12.8%
5,COC(=O)Cc1[nH]n(-c2nc3ccccc3s2)c(=O)c1C(C)=Nc1ccc(Cl)cc1,-2.71%
6,CCc1ccc(NC(=O)COn2nnc3ccc(S(=O)(=O)N(C)C)cc32)cc1,4.67%
7,CCOc1ccc(C(=S)N2CCOCC2)cc1OCC,-2.13%
8,CC(=O)NNC(=S)NC(=O)c1ccccc1,12.2%
9,COC(=O)c1cc(S(=O)(=O)NCc2cccs2)c[nH]1,16.2%
10,Cc1ccc(CN2CCN(CC(=O)N=Nc3c(O)[nH]c4ccccc34)CC2)cc1,-75.3%
11,Cc1cc(Nc2cccc(F)c2)nc(NCc2ccccc2)n1,11.6%
12,O=C(N/N=C/c1ccccn1)c1cc(C2CC2)nc2ccccc12,12.5%
13,Cn1c(CN2CCCCC2)nc2cc(NS(=O)(=O)c3ccc(Cl)cc3)ccc21,-9.75%
14,O=C(CN(C(=O)CSc1nc2ccccc2o1)c1cccc(F)c1)NC1CCCCC1,10.1%
15,CC(C)(C)c1ccc(C(=O)OCCNC(=O)c2c(Cl)nc3ccccn23)cc1,5.24%
16,CCN(Cc1ccccc1)C(=O)CN1C(=O)COc2ccc(S(=O)(=O)N3CCCCCC3)cc21,3.59%
17,CCCc1nc(SCc2cccnc2)c2c(=O)n(C)c(=O)n(C)c2n1,-12.7%
18,CCCCC(=O)OCC(=O)c1cc(C)n(-c2c(C)n(C)n(-c3ccccc3)c2=O)c1C,11.3%
19,CCOc1ccc2[nH]c(=O)c(CN(Cc3ccco3)C(=O)c3cccc(F)c3)cc2c1,8.97%
20,CCCOc1ccc(C(F)(F)F)cc1NC(=O)CCc1c(C)noc1C,-0.872%
21,CCN(CC(=O)Nc1ccc(OC)c(OC)c1)CC(=O)Nc1ccccc1C(F)(F)F,5.5%
22,CCOc1ccc(N2CCc3c(C)nc(SC)nc32)cc1,-4.4%

row,SMILES,"hERG current change (%, negative = inhibition) at 1uM"
1,CCc1nn(CC(=O)NCCCN(Cc2ccccc2)C(C)C)c(=O)c2cc3sccc3n12,-12.1%
2,COc1cc2cc(CN(CCO)S(=O)(=O)c3ccccc3)c(=O)[nH]c2cc1OC,7.64%
3,CN(C)c1nc(OCc2ccccc2)c2ncc(=O)[nH]c2n1,7.36%
4,O=C(/C=C/c1ccc(F)cc1)Nc1cccc(S(=O)(=O)Nc2cccc(C(F)(F)F)c2)c1,17.9%
5,Cc1cc(C)cc(C(=O)NCC(=O)OC(C)C(=O)N(C)c2ccccc2)c1 (stereo not shown),12.5%
6,COc1ccc(-c2cc(C(F)(F)F)c(C#N)c(=O)[nH]2)cc1,14.7%
7,Cc1ccc2c(c1)[C@H]1[C@H](CO2)[C@H](c2ccccc2)[C@]2(C)C(=O)N(Cc3ccc(Cl)cc3)CC(=O)N12,16.2%
8,Cc1ccc(C(=O)COC(=O)CCC(=O)Nc2cccc(Cl)c2)cc1[N+](=O)[O-],11.1%
9,O=S(=O)(N/N=C/c1ccc(F)cc1)c1ccccc1,8.45%
10,Cc1cc(N2CCCC2=O)cc(C)c1S(N)(=O)=O,7.43%
11,COc1ccc(NC(=O)CC2C(=O)NCCN2C(=O)c2ccccc2)cc1 (stereo not shown),12.9%
12,CC1=C(C(=O)Nc2cccc(C(=O)NCc3ccccc3C)c2)SCCO1,13.4%
13,CCC(O)(CC)C(=O)NN(C(=O)CCl)c1ccccc1,15.9%
14,Cc1ccc(Cn2c(=N)c(C(=O)NCc3ccco3)cc3c(=O)n4ccccc4nc32)cc1,-67.9%
15,CN(C)S(=O)(=O)c1cccc(NC(=O)c2sccc2-c2ccccc2)c1,4.26%
16,O=C(Nc1cccc(-n2cnnn2)c1)c1cccnc1,14.8%
17,COc1ccc(C(=O)c2c(-c3ccc(OC)cc3)oc3ccc(-c4ccc(OC)nc4)cc23)cc1,9.93%
18,CCN(CC)Cc1c[nH]c2c(C(=O)OC)cccc12,1.12%
19,COc1cccc(COc2ccc3c(C)cc(=O)oc3c2)c1,11.6%
20,CC(C)CCN1CCN(Cc2c(F)cccc2Cl)CC1CCO (stereo not shown),7.52%
21,COC(=O)c1sccc1S(=O)(=O)NC(C)c1cnn(-c2ccc(OC)cc2)c1C (stereo not shown),13.1%
